The list shows a part of the results.
tested on: PfSIP2 AP2 domain 1 (GST-tagged); assay: gcPBM binding intensity (ln(normalized median fluorescence intensity)); higher = stronger DNA binding
Outline: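 Binding intensity is defined as the maximum Masliner-normalised natural-log median intensity across replicate spots for either probe orientation. It was measured on an Agilent 4 × 180k array of primer-extended double-stranded 36-bp intergenic genomic probes and negative controls, to which GST-tagged P. falciparum DNA-binding domains made in E. coli were applied for 1 h in 1× PBS with 1% milk, 0.2 mg/ml BSA, 0.5% salmon testes DNA and 0.03% Triton X-100. Detection was by Alexa488 anti-GST antibody and scanning at 488 nm.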

Point of comparison: “AGGATTATATATTAATGTACCCGCGTTAATTTTTTT [XGTACX_site2878]”, “gcPBM binding intensity (ln)” value 6.82. Against it:
- CATACATACATACATACACACATACATATATATATA [CACACA_site8388] — higher, 9.32
- TCTAAAATAGTCCAGAGTACAAGAAACCATAATATA [XGTACX_site5237] — lower, 6.8
- ATAAAAATATAAACATGTACATAAAAATCTATATAT [XGTACX_site405] — higher, 7.22
- TTGCTTATATTTCTAAAATGTAAAAGACACAAAGGT [XGTACX_negctrl_site225] — higher, 7.27
- TTCTAATATATGCATACACACAAATGTGAATATACA [CACACA_site2142] — higher, 7.16
- ATATATTTATTTATATGTACATAATATTTTTCTCAG [XGTACX_site800] — higher, 7.04
- AAAAAAAAAAAAAACACACACACACCCAAATATATA [CACACA_site1169] — higher, 7.4
- AAAAATGCAATTTAATGTACACATAAGATGTTATTT [XGTACX_site6853] — higher, 6.93
- TTTTTTATTACTTTGTGTACTTACACAGAACCTTAT [XGTACX_site6038] — higher, 7.34
- ATGTATAAACATATATGTACTTAAATAAAATGTTAA [XGTACX_site4044] — higher, 7.13
- AAAAATAAAAAAATAATAAAATAAAAAATAAAAAAT [TGCATGCA_negctrl_site89] — higher, 6.85
- TAAAAAAACATATATTGTACGGAGATAATAATTTTT [XGTACX_site2946] — lower, 6.75
- TATACTGTCAATTCTACACACCATAGGGGGAGCATA [CACACA_site1875] — higher, 8.06
- CACCAATTCATATGCACACACATCTGCATATTATAT [CACACA_site1773] — higher, 7.43
- ATTAAAAGAACAATGTAAAAAAAGCAAATTAAAGAT [TGCATGCA_negctrl_site360] — higher, 7.29
- TTATTAAATGAAAAATGTACATATAAATGATTATAT [XGTACX_site2788] — higher, 6.96
- GAAATGTGTAGACACGCACACACAAAAAAATATATA [CACACA_site2912] — higher, 6.97
- CCAAATTTATAAAGAACACACACATATATATATATA [CACACA_site7900] — higher, 9.1
- TATACATATTTAATATGTACATAATAATACTTATTC [XGTACX_site6939] — higher, 6.95
- AAGCATGTAGAATAATGTACTTGTGATTTTAATATA [XGTACX_site8565] — lower, 6.8
- AAAAAAAAAATACAGGTGCAATAAGAAAAAAATGGT — higher, 10.2
- TATATTAACAAAATGGTGCAATAATTTCTATATTAT [GTGCAC_site9857] — higher, 10.4
- TAATATTTATCAAGTCGTACATAAAATGTATAATAA [XGTACX_site1103] — higher, 6.93
- ACAAAGAAATATAATACACACAAGAATATATTGGAT [CACACA_site3901] — higher, 6.98
- GTACAATAAGATGTAGCATGCCGTACCTTCACTACG [TGCATGCA_site235] — higher, 6.83
- ATACTGTATGAAAGCACACATACTTATTACTAACAT [CACACA_site4164] — higher, 7.02
- TATACATATTTGTATTGTACATAAACTAAATCTTCA [XGTACX_site610] — lower, 6.73
- CAAATAACAAAATAATGTACATTTATACTTTTTTTT [XGTACX_site943] — higher, 6.88
- TATCTCTACAAAATTTTATTCATTATTCATGTTATA [XGTACX_negctrl_site452] — higher, 6.98
- TCTAATAAAATAAATACATGCATACATACATACATA [TGCATGCA_site895] — higher, 7.11
- AAATAGAGAAATACAAGTACATACTAAACCTATCTA [XGTACX_site1334] — higher, 6.85
- TTTTTTAAACGTTTAAATAATTAAATATAAATAAAT [CACACA_negctrl_site1567] — higher, 6.85
- TGAACAACTATTACTGCACACATTCTTACACTATAT [CACACA_site4533] — higher, 7.23
- AAAAAAGAAACAATCGCATGCAATGTTAATGTACAT [TGCATGCA_site395] — lower, 6.77
- TACGCAAAATAAAATCAAAATATAAGGAAAAAAAAA [TGCATGCA_negctrl_site578] — lower, 6.69
- AGGTGTCATATATGCACACAAAAGTAACACGCACCT [CACACA_site472] — higher, 9.63
- GACCTACAAAAAGGCACACATATACTCATACATACA [CACACA_site5232] — higher, 7.25
- ACATTTATTTTGAATGGTACACTATTATTATGAAAT [XGTACX_site4384] — higher, 6.96
- GTGTAATGCTTATCGGTGCATATATATATATATATA — higher, 9.86
- AAAAAAAAAAAAGGTACTACACACTATTATCAATAG [XGTACX_site161] — higher, 7.05
- GATAATTTTTGCATATGTACTTAAAAATTAAAAATT [XGTACX_site7037] — higher, 7.17
- ATTAAAAAATCCATAGTGCACTACGATAGGTTCCGA [GTGCAC_site9463] — higher, 10.5
- AAAGATGGAGTGATATGTACTGATATATTATTATAT [XGTACX_site6500] — higher, 6.99
- AAGCATAAAGTATATAGTACATATATATATATATAT [XGTACX_site2945] — higher, 9.87
- ATATAGTAAAGTTATACACACATGAATTTTCCCATA [CACACA_site7457] — higher, 6.96
- ATATTTTAATTATAAAGTACATAAAAATATATAAAC [XGTACX_site6705] — higher, 6.99
- TTTTTTATTGTGATACGTATATTATTTTATGATAAA [CACACA_negctrl_site1591] — higher, 7.08
- TAAAAATGTAAACACACACACATAAATATATTTTAT [CACACA_site5397] — higher, 6.92
- CTTTTGCCCAAAAAGGTACACACCACAATGTACATA [CACACA_site809] — higher, 7.08
- GTTAATATACATAAACGTACAGAATTATTATGAGTT [XGTACX_site5185] — higher, 6.99
- TAAATAATCGCATAATGTACATATAATTTTTTTTTT [XGTACX_site4880] — the same, 6.82
- AAAATTTTTTTTATTTGTACACAATTCGATACATAA [XGTACX_site4804] — higher, 7.01
- GCTTGGATATATTAATGTACTTATATATTATGTTGT [XGTACX_site3768] — higher, 7.15
- CCAATTCAAATATGCACACAAATTTGAAAACGATTA [CACACA_site3607] — higher, 7.26
- TTTGTTGTTGTGAAACGTACTCATAGGATGTTGTAT [XGTACX_site5716] — higher, 7.26
- ATATTTTCAATGTTCACACATACACAAAAAAAAAAA [CACACA_site6077] — higher, 7.16
- TTACTAAACTTATATGTACACACATATAACATTAAT [CACACA_site8710] — higher, 7.28
- GTAAAAATTTCATATTCACACACAAAAAAAAAAAAT [CACACA_site8457] — higher, 7.11
- TAAAAAAAAAAAAAAAGTACCCATACTATATTACAT [XGTACX_site946] — higher, 6.85
- AAGAATTTTACAAAATGTACTTATGTTTTGTTTTAC [XGTACX_site5632] — higher, 6.83
- AGTAGTCTGGAGAAGAGTACATAGTATCTGATAACC [XGTACX_site2044] — higher, 7.16
- ATAAATAAATTTATACGTACACATAATATATATATA [XGTACX_site4634] — higher, 8.89
- ATTGAAAATTATTTACCTTCTTTGAAAGAACAAATG [CACACA_negctrl_site1736] — lower, 6.75
- AAAAATAAAATGATGGTGCACATAAAGTATGGTTAC — higher, 11.3
- TAATTAATATATTTTTGTACTTATATATTTGCGTAT [XGTACX_site340] — higher, 6.85
- AATCCACAAAGACACACACACACATATATATATATA [CACACA_site1269] — higher, 9.77
- AAAATTCTTCGGGGGAGTACAAGGATATTCTACGTT [XGTACX_site3974] — higher, 7.83
- TTATAATATATATGTGGTACTTATTTATTTATTTAT [XGTACX_site7572] — higher, 6.92
- TTTTGTAATTTTGTATGTACACATTAAAGTAATATG [XGTACX_site2401] — higher, 7.41
- ATTTTTGATTTTAAAAGTACATAAGTATACTATTTA [XGTACX_site7162] — higher, 7.04
- TTTAAAAAAAATATGTGTACTTAATATTTTCATATA [XGTACX_site7421] — lower, 6.78
- TACATATAAATAATAACACACACCTAGGTACATGGA [CACACA_site838] — higher, 6.89
- CATACACAGAAACACACACACATATATATATATATA [CACACA_site4519] — higher, 9.79
- AGAAAGGAGGAAATAAAAGGACTTCTTTTTTTATAT [CACACA_negctrl_site810] — lower, 6.69
- ATTCATATCTACTTCACACACATTTGATCATTCAAA [CACACA_site7207] — higher, 7.28
- ATAGTATTTTTTATTACACACAAATAAAAAGAAAAA [CACACA_site2087] — higher, 7.23
- ATGAAACAGTAACATTGTACTTTTACAAAAAAATAA [XGTACX_site806] — lower, 6.75
- AAAATCTATATTAACACACACACAAAAAAAAAAAAA [CACACA_site6738] — higher, 7
- ATCTTTCGTACATGTACACACAGAAAAAAAAAAAAA [CACACA_site2502] — higher, 7.31
- GTTCCCATAAATAAATGTACATATTATATATATATA [XGTACX_site3242] — higher, 8.94
- GTGTAATCATATAAGGGTACAAAAAATGTCTAACAA [XGTACX_site8122] — higher, 7.12
- TTTCATTTCACAGACACACACACACCCTATATTTCC [CACACA_site3906] — higher, 7.1
- ATATATTTTATATAGTGTACTTTAATTTTTTTTTTT [XGTACX_site5550] — higher, 6.83
- ATTTTTTTTTTTTTTGAACACACATTATTAATTTTT [CACACA_site7990] — higher, 6.89
- ATAAATAAAACAAAATGTACAAATATTCATATATTC [XGTACX_site1307] — higher, 6.87
- ATATATATATATGTTAGTACTTATATTGAAATGGTA [XGTACX_site1406] — higher, 9.45
- TTATTTACCTATTATAGTACATATAATTAATATAAT [XGTACX_site5724] — higher, 7.22
- TTTCGAATTAAAGCATGTGAAAATTTTCAAAAAATA [XGTACX_negctrl_site577] — higher, 6.93

Source: the supplement of paper PMC11417369
